According to paper PMC7819943, “Rice protein-binding microarrays: a tool to detect cis-acting elements near promoter regions in rice”:
The other results are listed elsewhere or left out.

These sequences were tested against T1, OsWOX13 (Oryza sativa, UniProt Q5QMM3 1-267) (assay: protein-binding microarray (RPBM); PBS, 2% BSA, 51.3 ng/ul salmon testes DNA, 50 uM zinc acetate, 200 nM TF, 25 C, 1 h; high values mean tight binding). Conditions: protein: recombinant; tags: N-terminal polyhistidine and DsRed monomer fusion (pET32a); label: CyDye5-dUTP incorporated in the synthesized complementary strand; 3' TTTTT single-stranded linker to array surface; dsDNA, one strand shown.
T1 sequence: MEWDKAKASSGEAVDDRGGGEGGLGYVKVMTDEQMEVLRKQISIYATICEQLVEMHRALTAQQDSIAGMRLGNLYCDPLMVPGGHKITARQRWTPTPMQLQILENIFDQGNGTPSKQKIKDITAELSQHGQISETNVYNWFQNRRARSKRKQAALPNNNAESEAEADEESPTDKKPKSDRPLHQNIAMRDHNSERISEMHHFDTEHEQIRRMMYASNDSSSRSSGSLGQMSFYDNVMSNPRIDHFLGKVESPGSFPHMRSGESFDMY
How it was run: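 Ni–NTA purification followed expression in E. coli BL21-CodonPlus of transcription factors fused N-terminally to a polyhistidine tag and DsRed. At 200 nM in PBS with 2% BSA, salmon testes DNA and 50 µM zinc acetate, the protein was incubated for 1 h at 25 °C with a custom Agilent array that had been primer-extended with Cy5-dUTP and blocked with 2% BSA. After washing, the array was read on an Axon 4000B scanner. The binding signal is per-feature fluorescence intensity in arbitrary units.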

Sequence	binding signal
GGAGGGCGGGCTGTTATATTCTTCACACCTTGCATGTAAGCGGAGTCACCTAGTGCAG	3310 fluorescence intensity (a.u.)
ATTTCAATCAAACTTCCAATTTTAGCGTGAAGTAAACACACGGAGTCACCTAGTGCAG	21100 fluorescence intensity (a.u.)
AAACTAATTTCGAATCTAAATTCGATGAGAAGATCGGGATCGGAGTCACCTAGTGCAG	9230 fluorescence intensity (a.u.)
CTTTAATCAAAATCAAAACGTTTTGAAACAAAGAGTACATCGGAGTCACCTAGTGCAG	4430 fluorescence intensity (a.u.)
CAATTGTACACCCAACTAATTAATGTATACATGCATGATTCGGAGTCACCTAGTGCAG	3380 fluorescence intensity (a.u.)
GATTTGATTTAAATCTTGAATAAATTTAATAAAATCCTATCGGAGTCACCTAGTGCAG	10000 fluorescence intensity (a.u.)
GGTTTATAATCTACTTTTAATTATTTGGATAATTTATTTCCGGAGTCACCTAGTGCAG	12800 fluorescence intensity (a.u.)
GTGTGACAGTGTGACAGATGTGCATCATGTGGGTCACAAACGGAGTCACCTAGTGCAG	5070 fluorescence intensity (a.u.)
GATTTAATAAAACTAATTTGATATTCAAAGTGTTGCTATTCGGAGTCACCTAGTGCAG	8280 fluorescence intensity (a.u.)
AGGAAATTTTCACAAACTAATAATGTTTATAAGCCATACTCGGAGTCACCTAGTGCAG	3150 fluorescence intensity (a.u.)
ACAGTTCCTTTGTGCCAATCATTGAACCCGGGAATGCTGGCGGAGTCACCTAGTGCAG	4780 fluorescence intensity (a.u.)
GAAAATGCTTAATTAGTAGGGATTATTGAATCACATGCTTCGGAGTCACCTAGTGCAG	23000 fluorescence intensity (a.u.)
CATCGCAGTGGATTGACATGCTGACCACAAGCCCTCCTGTCGGAGTCACCTAGTGCAG	6000 fluorescence intensity (a.u.)
TCACCGTGATTAGTCTCACCCCTAGTTTAGCTTAATGAACCGGAGTCACCTAGTGCAG	27800 fluorescence intensity (a.u.)
TGTTGAATGAAAATTTGTAGAATTCAACAAATTGTAAATGCGGAGTCACCTAGTGCAG	4440 fluorescence intensity (a.u.)
CGCCGTTGATTGGTTCCCCTCTGCCGCTGTCGCGAGGAAGCGGAGTCACCTAGTGCAG	34900 fluorescence intensity (a.u.)
TAAGCCTAATTAATCCATAATTAGAGAATGTTTACTGTAGCGGAGTCACCTAGTGCAG	40100 fluorescence intensity (a.u.)
ACGGTCACTAAATTAAAATATTTGTTGTTGGTGTCTCACGCGGAGTCACCTAGTGCAG	3670 fluorescence intensity (a.u.)
AACTAATCACAATCATTTTCTATTTTGATTTCATCATCTACGGAGTCACCTAGTGCAG	18400 fluorescence intensity (a.u.)
TCTGATTTGCTTCCTCCGCGAACCGGTCGTCTTCTCCAGCCGGAGTCACCTAGTGCAG	28200 fluorescence intensity (a.u.)
AGTTCCTGCCTAATTGACTTACGCTGACTCTGTCAATATCCGGAGTCACCTAGTGCAG	18900 fluorescence intensity (a.u.)

Sequence	binding signal
TTTAAATTTAAGTTGAAATGTTAAACAAATCGTTTGCAATCGGAGTCACCTAGTGCAG	6110 fluorescence intensity (a.u.)
AAATTGAAAATTTGGTTGAAATTGAAACGATGTGACGAAACGGAGTCACCTAGTGCAG	3900 fluorescence intensity (a.u.)
TGAAACAATTTATTAATTGAGTTTTGAGTGGATCTAAGAACGGAGTCACCTAGTGCAG	23600 fluorescence intensity (a.u.)
ATATGTAATTTGTTTTGTTTTAGTCTACGTTTAATAGTTCCGGAGTCACCTAGTGCAG	6560 fluorescence intensity (a.u.)
ACTTCCAATTTTGACGTGAATTAAACACAGCCTACATCTCCGGAGTCACCTAGTGCAG	5840 fluorescence intensity (a.u.)
TATTTTAATTTTATTATTGTTATACGATTTAGTTAAGGTGCGGAGTCACCTAGTGCAG	6840 fluorescence intensity (a.u.)
CATTCATATTGATGTTAATAAATTAATATAGATATATATGCGGAGTCACCTAGTGCAG	3590 fluorescence intensity (a.u.)
TCCACCAATCAGGATTGCAGGATATGAATGAGGCGAGATGCGGAGTCACCTAGTGCAG	14700 fluorescence intensity (a.u.)
TATAATTTATATGTATAGGCAGTCTCAGTATAATTTGGTCCGGAGTCACCTAGTGCAG	19000 fluorescence intensity (a.u.)
ACAGTTTCAATCAGTTGTAAAACCAGGCGTTTGATGTGGGCGGAGTCACCTAGTGCAG	12500 fluorescence intensity (a.u.)
ACCAAATTAGGCGTATCCAATCCAATCCTCCAAGCGAAGCCGGAGTCACCTAGTGCAG	7630 fluorescence intensity (a.u.)
TCTTTTAACTAATCAAAACCGGTCAACAATATGTCCCTCGCGGAGTCACCTAGTGCAG	5410 fluorescence intensity (a.u.)
ATATAATTATGAGCAAAAGAGATACATCTAATTGTGATCTCGGAGTCACCTAGTGCAG	17000 fluorescence intensity (a.u.)
TCTGATAACCACATGATTACGGCCCCGTCGACGCTGTGCACGGAGTCACCTAGTGCAG	8630 fluorescence intensity (a.u.)
TTAGATTGAAATCGTATGGTGACAAAATTTGACAGATTCTCGGAGTCACCTAGTGCAG	36700 fluorescence intensity (a.u.)
AGACCTAATTACCACTACAGCCGCGACCTCGATTTTGTTTCGGAGTCACCTAGTGCAG	12300 fluorescence intensity (a.u.)
CATTAAATAAAAGATTTTCTAATCACCTGATCATTTGCTACGGAGTCACCTAGTGCAG	6820 fluorescence intensity (a.u.)
GTAGATTGGTAGCTAACTTTTCAGAATCTATAGAAACCACCGGAGTCACCTAGTGCAG	42800 fluorescence intensity (a.u.)
TCTCACAGATTTGCTTAATTTCTATATCTAAGCTGACTATCGGAGTCACCTAGTGCAG	10300 fluorescence intensity (a.u.)
TTAATTGCTATGTTTTGACCAGTCAACGCATAGGTCGTTTCGGAGTCACCTAGTGCAG	15500 fluorescence intensity (a.u.)
GGTGCTTGATTAATACAGCTTTTCAATTTTAAGCTGGGTGCGGAGTCACCTAGTGCAG	23100 fluorescence intensity (a.u.)
